# Data as given in the BET-seq Pho4 binding data (Le et al. 2018).
# The list shows a part of the results. Values were computed here from the reads of four pooled replicates and scatter widely.
# Target: T1, Pho4 (S. cerevisiae) (UniProt P07270)
# T1 sequence: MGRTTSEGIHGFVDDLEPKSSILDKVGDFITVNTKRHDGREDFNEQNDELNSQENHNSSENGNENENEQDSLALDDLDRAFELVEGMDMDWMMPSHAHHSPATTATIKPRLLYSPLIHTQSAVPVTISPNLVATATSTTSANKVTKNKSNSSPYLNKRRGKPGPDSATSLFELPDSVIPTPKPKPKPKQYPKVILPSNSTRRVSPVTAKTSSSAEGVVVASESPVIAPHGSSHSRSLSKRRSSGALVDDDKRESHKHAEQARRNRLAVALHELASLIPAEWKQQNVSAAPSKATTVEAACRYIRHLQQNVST
# Experiment: relative binding free energy (BET-seq); higher = weaker binding
# Conditions: reference: library average
row,Sequence,relative binding free energy
1,GGATCCACGTGAGTTT,0.4 kcal/mol
2,CTTGTCACGTGTGTTT,0.19 kcal/mol
3,TGGGGCACGTGTGTCC,-0.09 kcal/mol
4,GTTTTCACGTGTTTCA,0.3 kcal/mol
5,TTAGACACGTGTGTCT,0.03 kcal/mol
6,TAGATCACGTGGTAGT,0.15 kcal/mol
7,CAGATCACGTGGGTGT,-0.09 kcal/mol
8,CGTGTCACGTGCTGTT,-0.16 kcal/mol
9,TTTATCACGTGTTGTA,0.17 kcal/mol
10,TCGGCCACGTGAGTTG,0.19 kcal/mol
11,GTGTACACGTGGATGT,-0.04 kcal/mol
12,TGTAGCACGTGGTAAA,-0.15 kcal/mol
13,ATGAGCACGTGGATAG,-0.03 kcal/mol
14,GGGCTCACGTGTTATG,0.28 kcal/mol
15,TGTTGCACGTGCATAG,-0.2 kcal/mol
16,TTGTGCACGTGATTAC,0.08 kcal/mol
17,TCGTTCACGTGTGCGC,0.28 kcal/mol
18,TTTTTCACGTGGTATG,0.25 kcal/mol
19,TTAAACACGTGGATTT,0.04 kcal/mol
20,TGTATCACGTGAGTGT,0.28 kcal/mol
21,GCTAGCACGTGGTAGT,-0.1 kcal/mol
22,GATTGCACGTGGGTAG,-0.04 kcal/mol
23,CGTTACACGTGGTTTA,0.1 kcal/mol

row,Sequence,relative binding free energy
1,CGATTCACGTGTAATG,0.29 kcal/mol
2,CGGTGCACGTGTTAGT,-0.16 kcal/mol
3,GCGTACACGTGTATGA,0.22 kcal/mol
4,GTTTCCACGTGTTAGT,0 kcal/mol
5,ACGGGCACGTGTGTGC,-0.12 kcal/mol
6,GGCGACACGTGGGTGC,-0.07 kcal/mol
7,GTATTCACGTGTAGAA,0.3 kcal/mol
8,TTCGGCACGTGTGGGT,-0.04 kcal/mol
9,AGCGACACGTGGAGGG,0.08 kcal/mol
10,GATAGCACGTGTTAAG,0.11 kcal/mol
11,ATAGGCACGTGTAAGA,0.05 kcal/mol
12,TGCGGCACGTGTTGAA,-0.13 kcal/mol
13,GTAATCACGTGAGGAG,0.42 kcal/mol
14,ATTTTCACGTGTAAAG,0.3 kcal/mol
15,TGAGTCACGTGCGTTA,0 kcal/mol
16,TATGGCACGTGAATAT,0.08 kcal/mol
17,GGTTTCACGTGTATCG,0.41 kcal/mol
18,ACTGACACGTGTTTGG,0.07 kcal/mol
19,GGCGTCACGTGGGGGC,-0.03 kcal/mol
20,GTGTGCACGTGTATCT,0.03 kcal/mol
21,AGAGGCACGTGTGATT,0.01 kcal/mol
22,CGAGTCACGTGGGGTT,0.01 kcal/mol
23,GTTGGCACGTGGGTAC,-0.21 kcal/mol

row,Sequence,relative binding free energy
1,CGGTCCACGTGTGGTT,0.08 kcal/mol
2,CGATTCACGTGGGTCG,0.24 kcal/mol
3,TTTGTCACGTGCGACG,0.06 kcal/mol
4,GGGGTCACGTGAAAGC,0.39 kcal/mol
5,TTTAGCACGTGTGTGC,-0.12 kcal/mol
6,CGGTTCACGTGAGGCA,0.49 kcal/mol
7,TGGCGCACGTGAGGGA,0.21 kcal/mol
8,AGGTCCACGTGGTGGA,0.03 kcal/mol
9,AGGTTCACGTGTCTAG,0.33 kcal/mol
10,GTATACACGTGAAAGT,0.31 kcal/mol
11,GTGATCACGTGCAGGG,0.17 kcal/mol
12,AGGTTCACGTGCTTAG,0.24 kcal/mol
13,ACGTGCACGTGCATGG,0 kcal/mol
14,TAATACACGTGTGGGT,0.18 kcal/mol
15,GTTTTCACGTGGTGTC,0.28 kcal/mol
16,ATGGCCACGTGGGTCT,-0.04 kcal/mol
17,ACGTGCACGTGGGGGT,-0.24 kcal/mol
18,CGGTTCACGTGCTTGT,0.14 kcal/mol
19,CTGTACACGTGGCGTG,0.03 kcal/mol
20,AGAGCCACGTGTGAGT,0.06 kcal/mol
21,GTTGACACGTGTCAGG,0.12 kcal/mol
22,ATAGTCACGTGATGTG,0.21 kcal/mol
23,GGCGACACGTGGTAGG,0.16 kcal/mol

row,Sequence,relative binding free energy
1,CGGTTCACGTGGCAGT,0.22 kcal/mol
2,TGTCTCACGTGTTCGT,0.23 kcal/mol
3,GTGGGCACGTGTACGT,0.02 kcal/mol
4,ATGTGCACGTGTTTTT,0.07 kcal/mol
5,AGCTGCACGTGTAGAG,-0.06 kcal/mol
6,ATCGTCACGTGTTGTG,0.1 kcal/mol
7,TAGTGCACGTGTTTTA,-0.04 kcal/mol
8,ATGAGCACGTGGTAGG,-0.14 kcal/mol
9,TGTTCCACGTGGTACT,-0.01 kcal/mol
10,AGGTTCACGTGGTTTA,0.31 kcal/mol
11,AGGAACACGTGTAGTA,0.04 kcal/mol
12,AATGTCACGTGAGGGC,0.3 kcal/mol
13,TAATGCACGTGATTAG,0.18 kcal/mol
14,GCGTTCACGTGGAGTT,0.27 kcal/mol
15,TTTATCACGTGTTGTG,0.06 kcal/mol
16,AGTGTCACGTGAAAGC,0.34 kcal/mol
17,TATTACACGTGAGATG,0.37 kcal/mol
18,AGTTTCACGTGACTGT,0.35 kcal/mol
19,AGGCTCACGTGTGGGT,0.22 kcal/mol
20,AGAGTCACGTGTCAGG,0.25 kcal/mol
21,CAAGGCACGTGGTAAA,0.1 kcal/mol
22,GAGGACACGTGTGAGT,0.14 kcal/mol
23,ATTTGCACGTGGCTTA,-0.07 kcal/mol

row,Sequence,relative binding free energy
1,AGAACCACGTGGGTGG,-0.26 kcal/mol
2,CGGAACACGTGGGGAT,-0.01 kcal/mol
3,ATTATCACGTGGGTCT,-0.13 kcal/mol
4,TGCTCCACGTGTGTGT,-0.07 kcal/mol
5,TAGTTCACGTGGCTGG,0.31 kcal/mol
6,ATTAACACGTGGCGTT,-0.15 kcal/mol
7,TTGTTCACGTGTTACG,0.39 kcal/mol
8,TAAGACACGTGAGGGA,0.19 kcal/mol
9,GCTTGCACGTGGATTT,0.14 kcal/mol
10,TAGGGCACGTGAACGT,0.06 kcal/mol
11,TTATACACGTGAAGGT,0.26 kcal/mol
12,CTCGGCACGTGGGAGG,-0.26 kcal/mol
13,AGTATCACGTGTCTAG,0.19 kcal/mol
14,GGGTGCACGTGATTGT,0.14 kcal/mol
15,GAGTGCACGTGTTATT,0.05 kcal/mol
16,TAGGTCACGTGCTGCT,-0.03 kcal/mol
17,TCGAGCACGTGGGTCG,-0.18 kcal/mol
18,TAAAGCACGTGGTAAG,0.01 kcal/mol
19,CCAAGCACGTGGTGGT,-0.02 kcal/mol
20,TTATCCACGTGTAGGG,0.05 kcal/mol
21,AGCTGCACGTGCTGGT,-0.18 kcal/mol
22,CGTGTCACGTGAACAG,0.51 kcal/mol
23,GGGAGCACGTGCTATG,-0.18 kcal/mol
